{"source": "PubChem BioAssay AID488969", "about": "(Vanderbilt High Throughput Screening Facility, 2010)", "note": "Whole data set: some 110,000 compounds, median “z-score” near -0.1, cut for the highest 2% near 2. Some of the results follow. Active and inactive are the calls of the source.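 Rule for the calls: active = z-score in the third read window above 3 or below -3; inactive = the rest.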 Non-standard residues stand in square brackets, D forms with d. Residues, ends and D or L forms follow the SMILES beside them. ξ: configuration not given here. *: point of attachment. Cbz = O=C(OCc1ccccc1)*; Boc = CC(C)(C)OC(=O)*; OBn = c1ccc(CO*)cc1; ξP = O=C(O)C1CCCN1", "data": [{"biological_target": "Metabotropic glutamate receptor 8 (Rattus norvegicus) (UniProt P70579)", "sequence (P70579 whole entry, looked up)": "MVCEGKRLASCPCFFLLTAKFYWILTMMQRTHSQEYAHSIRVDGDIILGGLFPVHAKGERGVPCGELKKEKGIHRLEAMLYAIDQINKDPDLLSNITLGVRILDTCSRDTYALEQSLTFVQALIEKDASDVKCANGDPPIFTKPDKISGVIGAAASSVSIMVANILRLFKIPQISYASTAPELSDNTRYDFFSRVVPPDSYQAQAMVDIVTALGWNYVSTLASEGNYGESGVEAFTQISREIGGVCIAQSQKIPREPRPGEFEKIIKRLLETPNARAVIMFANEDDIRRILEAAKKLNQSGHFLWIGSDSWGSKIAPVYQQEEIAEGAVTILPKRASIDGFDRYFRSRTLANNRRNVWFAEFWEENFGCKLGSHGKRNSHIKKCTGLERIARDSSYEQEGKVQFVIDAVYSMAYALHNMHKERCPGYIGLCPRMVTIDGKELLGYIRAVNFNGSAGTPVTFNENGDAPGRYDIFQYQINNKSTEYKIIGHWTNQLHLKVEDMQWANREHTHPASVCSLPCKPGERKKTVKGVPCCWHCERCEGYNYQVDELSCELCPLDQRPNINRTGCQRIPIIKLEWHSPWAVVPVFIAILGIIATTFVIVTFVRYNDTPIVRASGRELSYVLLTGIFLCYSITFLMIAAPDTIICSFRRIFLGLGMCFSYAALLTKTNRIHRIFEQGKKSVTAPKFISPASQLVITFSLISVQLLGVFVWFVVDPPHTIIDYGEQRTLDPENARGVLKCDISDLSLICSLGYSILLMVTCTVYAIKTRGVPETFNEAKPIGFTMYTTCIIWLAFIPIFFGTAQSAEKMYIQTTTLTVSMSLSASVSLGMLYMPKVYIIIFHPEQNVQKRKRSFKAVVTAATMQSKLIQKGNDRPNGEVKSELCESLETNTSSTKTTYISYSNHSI", "assay": "mGluR8 Gi/Go-coupled signaling modulation – cell-based, rat, thallium flux, HTS, primary screen (AID 488969)", "details": "HEK293 rat mGluR8, GIRK (G protein-gated inwardly rectifying potassium channel) thallium flux, FluoZin2; at 10 µM; stronger effect = higher value; submaximal glutamate (EC20) added with thallium", "values": [{"compound": "Cc1nc(N)sc1-c1csc(Nc2ccccc2)n1", "z-score": -0.33}, {"compound": "Cc1c(-n2cc(C(=O)c3cc(Cl)ccc3O)cc(C#N)c2=O)c(=O)n(-c2ccccc2)n1C", "z-score": 0.462}, {"compound": "Cc1cc2c(cc(C(=O)OC(C(=O)NCc3ccco3)C(C)C)n2C)o1", "note": "(configuration not stated)", "z-score": -0.314}, {"compound": "Cc1ccc(S(=O)(=O)CCc2nnc(N)s2)cc1C", "z-score": 0.747}, {"compound": "OC(COc1ccc2c(c1)CCC2)CN1CCN(c2cccc(Cl)c2)CC1", "note": "(configuration not stated)", "z-score": 0.306}, {"compound": "Cc1ccc(N2CCN(CCCCN3C(=O)C4CCCN4C3=O)CC2)cc1", "note": "(configuration not stated)", "z-score": -0.179}, {"compound": "CC1(C(=O)NCc2ccccc2)Oc2ccccc2NC1=O", "note": "(configuration not stated)", "z-score": -0.0508}, {"compound": "O=C(CNC(=O)OCc1ccccc1)NCC(=O)N1CCCC1C(=O)OCc1ccccc1", "note": "(stereo not drawn) (Cbz-Gly-Gly-[ξP]-OBn)", "z-score": 0.112}, {"compound": "Cc1cccc(Oc2cc(NC(=O)Cn3cnc([N+](=O)[O-])n3)cc([N+](=O)[O-])c2)c1", "z-score": -0.113}, {"compound": "CC(C)NS(=O)(=O)c1ccc(NC(=S)NC(=O)c2cccc([N+](=O)[O-])c2)cc1", "z-score": -0.0995}, {"compound": "Cc1ccc(NC(=O)c2cc(NC(=O)c3ccco3)ccc2N2CCOCC2)cc1", "z-score": -0.747}, {"compound": "CCN1C(=O)/C(=C/C=C2/Sc3ccc4ccccc4c3N2CCO)SC1=S", "z-score": -0.294}, {"compound": "CN(C)c1ccc(C=NCCC2(O)CCOC(C)(C)C2)cc1", "note": "(configuration not stated)", "z-score": -0.256}, {"compound": "O=C(Nc1ccc(NC(=O)c2cccs2)cn1)c1ccco1", "z-score": 1.94}, {"compound": "Cc1cc(/C=C2/NC(=O)NC2=O)c(C)n1-c1sc2c(c1C#N)CCCC2", "z-score": -0.0154}, {"compound": "O=C(NC1CCCCC1)C(c1ccncc1)N(C(=O)Cn1nnc(-c2cccs2)n1)C1CCCC1", "note": "(configuration not stated)", "z-score": 1.25}, {"compound": "COc1ccc(NC(=O)C2CCCCN2S(=O)(=O)c2ccc(F)cc2)cc1", "note": "(configuration not stated)", "z-score": -0.283}, {"compound": "COc1ccc(/C=C(/C(=O)NCc2ccccc2)c2ccccc2)cc1", "z-score": -0.482}, {"compound": "C/C(=N\\OC(=O)NC1CCCCC1)c1sc(-c2ccccc2)nc1C", "z-score": -0.257}, {"compound": "Cc1ccc(Nc2nc(CSc3nnnn3-c3ccccc3)cs2)cc1", "z-score": -0.0548}, {"compound": "Cc1cnc(C(=O)OCC(=O)Nc2ccc(Cl)cc2)cn1", "z-score": -0.632}, {"compound": "CC(C)c1cccc(C(C)C)c1NC(=O)COc1nncc2ccccc12", "z-score": -0.361}, {"compound": "CC(C)Cc1nc2n[nH]c(N)c2c2c1CCCC2", "z-score": -0.155}, {"compound": "CC(C)(C)n1nnnc1C(c1cccs1)N(Cc1ccc(Cl)cc1)CC1CCCO1", "note": "(configuration not stated)", "z-score": -0.113}, {"compound": "COc1cccc(-n2c(Cc3cc(=O)[nH]c(=O)[nH]3)nnc2SC(C)C)c1", "z-score": -0.195}, {"compound": "CCOC(=O)CC1ON(C)C(=O)N1c1ccc([N+](=O)[O-])cc1", "note": "(configuration not stated)", "z-score": 0.0464}, {"compound": "O=C(N/N=C/c1ccncc1)c1cc(Br)ccc1OCc1ccccc1", "z-score": 0.109}, {"compound": "CCCc1cc(=O)[nH]c(SCC(=O)OCc2ccccc2)n1", "z-score": -0.208}, {"compound": "CCCCC(=O)Nc1cc(NC(=O)CC)ccc1Cl", "z-score": -0.0794}, {"compound": "CC(NC(=O)OC(C)(C)C)C(=O)N1CCCC1C(=O)NC(Cc1ccccc1)C(N)=O", "note": "(stereo not drawn) (Boc-Ala-Pro-Phe-NH2; configuration not given here)", "z-score": 0.392}, {"compound": "Cc1nc(-c2ccccc2)sc1C(N)=O", "z-score": 0.19}, {"compound": "CCC(C)NC(=O)c1ccc(COc2ccccc2Cl)cc1", "note": "(configuration not stated)", "z-score": -0.049}, {"compound": "N#C/C(=C\\c1ccc(N2CCOCC2)c([N+](=O)[O-])c1)c1nc2ccccc2[nH]1", "z-score": 2.63}, {"compound": "Cc1ccccc1NC1=C(Cl)C(=O)OC1OC(C)C", "note": "(configuration not stated)", "z-score": -0.0282}, {"compound": "Cc1cccc(Cn2c(SCC(=O)Nc3ccccc3)nc3c2c(=O)[nH]c(=O)n3C)c1", "z-score": -0.546}, {"compound": "CCN(CC)CCN(C(=O)Cn1nnc(-c2ccc(OC)c(OC)c2)n1)C(C(=O)NC1CCCC1)c1ccc(F)cc1", "note": "(configuration not stated)", "z-score": -0.225}, {"compound": "Cc1ccc(N2CC(C(=O)Nc3cc(C)on3)CC2=O)cc1", "note": "(configuration not stated)", "z-score": -0.203}, {"compound": "CCCc1cc(=O)n2[nH]c(Cc3ccccc3)nc2n1", "z-score": -1.87}, {"compound": "Cc1oc(-c2ccccc2Cl)nc1CSCC(=O)NC1CC1", "z-score": -0.779}, {"compound": "CCc1cccc(CC)c1NC(=S)NCC(c1cccnc1)N1CCOCC1", "note": "(configuration not stated)", "z-score": 0.00701}, {"compound": "Cc1c(NC(=O)COC(=O)c2cc3c4ccccc4n(C)c3s2)c(=O)n(-c2ccccc2)n1C", "z-score": -1.5}, {"compound": "CC(C)[C@H](Nc1ccc(S(=O)(=O)N2CCOCC2)cc1[N+](=O)[O-])C(=O)OCC(N)=O", "z-score": -0.189}, {"compound": "Nc1nc(Nc2ccc(Cl)cc2)nc2ccccc12", "z-score": 0.397}, {"compound": "O=[N+]([O-])c1cccc(CN(CCO)Cc2ccccc2)c1", "z-score": -0.194}, {"compound": "Fc1ccc(-c2cn3cc(C(F)(F)F)cc(Cl)c3n2)cc1", "z-score": -0.424}, {"compound": "Oc1oc(-c2cccc3ccccc23)nc1/C=N/c1nccs1", "z-score": "active: 7.77"}, {"compound": "COc1ccc(-c2noc(CSc3nc4ccccc4c(=O)n3-c3ccc(C)cc3)n2)cc1", "z-score": 0.0372}, {"compound": "CCOC(=O)N1N=C(c2ccc(C)cc2)CC1(O)C(F)(F)F", "note": "(configuration not stated)", "z-score": -0.162}, {"compound": "NC(=O)c1c(NC(=O)CSc2nnc(-c3ccco3)n2N)sc2c1CCCC2", "z-score": -0.428}, {"compound": "COc1ccc(Cl)cc1S(=O)(=O)Nc1cccc(C(=O)O)c1", "z-score": 0.587}, {"compound": "Cn1c(NC(=O)c2cc(Br)ccc2Cl)cc(=O)n(C)c1=O", "z-score": -0.253}, {"compound": "CCNS(=O)(=O)c1ccc(NC(=O)Cc2ccc(F)cc2)cc1", "z-score": 0.35}, {"compound": "Nc1nc(SCc2ccccc2)[nH]c(=O)c1-c1ccccc1", "z-score": -0.741}, {"compound": "N#CCC(=O)Nc1ncn(Cc2ccccc2Cl)n1", "z-score": -0.181}, {"compound": "CC(C)(C)c1ccc(C(=O)Nc2ccc(NC(=O)c3ccco3)cc2)cc1", "z-score": 0.327}, {"compound": "CN(C)c1ccc(NC(=O)c2ccc([N+](=O)[O-])cc2Cl)cc1", "z-score": -0.282}, {"compound": "COc1ccc(NC(=O)Cc2ccc(C)cc2)c([N+](=O)[O-])c1", "z-score": 0.104}, {"compound": "O=c1cc(-c2ccc([N+](=O)[O-])cc2)nc2cc(-c3ccc(Cl)cc3)[nH]n12", "z-score": 0.0459}, {"compound": "CCN(CC)c1ccc(NC(=O)c2ccc(Cl)nc2)cc1", "z-score": -0.204}, {"compound": "Cc1ccc(C)c(NC(=O)CCCCCCCCCCC2COCCO2)c1", "note": "(configuration not stated)", "z-score": -0.192}, {"compound": "CCOc1ccc(CCNC(=O)COC(=O)c2cccnc2OCC)cc1OCC", "z-score": -0.206}, {"compound": "COc1ccc(OC(=O)c2ccc3nsnc3c2)cc1", "z-score": -0.0714}, {"compound": "Cc1cccc2cc3c(N)c(C(=O)N4CCc5ccccc54)sc3nc12", "z-score": -0.081}, {"compound": "O=C(Nc1ccc2nc(-c3cccnc3)[nH]c2c1)C12CC3CC(CC(C3)C1)C2", "z-score": -0.105}, {"compound": "O=C(O)CN1C(=O)COc2cc(S(=O)(=O)N3CCCC3)ccc21", "z-score": -0.317}, {"compound": "COc1ccc(-c2nnc(SCC(=O)N3c4ccccc4Sc4ccccc43)o2)cc1", "z-score": -1.63}, {"compound": "O=C(COC(=O)c1ccc([N+](=O)[O-])s1)Nc1ncc(C(F)(F)F)cc1Cl", "z-score": -0.442}]}]}
